Values joined by “and” are separate entries in the source; they are usually repeats but may differ in a detail not shown here. Equal entries are not always repeated. About 4,000 (4.3%) of roughly 94,000 compounds were called active. This list was built around the results that the source calls inconclusive (neither active nor inactive); the mix of calls is not that of the screen. The call rests on the fitted dose curve; in most records, active means well fitted inhibition curve with a large enough effect; inconclusive means small, poorly fitted or top-dose-only effect; inactive means no such curve, though single readings can be large or run the other way. A potency beside an inconclusive call is a rough fit, not a confirmed value.
assay: Cytotoxic Profiling in NIH 3T3 Cell Line of Diverse Libraries Using Quantitative High-Throughput Screening; details: NIH 3T3 viability, CellTiter-Glo ATP luminescence, 48-72 h; series mostly up to 96.7 µM; further: nearly all actives have a fitted effect of over 55% in size
How it was run: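 Cells were seeded at 400 per well, treated with pin-transferred compound, and kept 48 or 72 hr at 37 °C before CellTiter-Glo addition and luminescence imaging of cellular ATP.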
Potency means the concentration at half of the fitted maximal effect; tags describe the fitted curve by direction and shape.

Row | Compound | Potency
1 | Cc1nn(-c2ccc(C(C)C)cc2)c(C)c1[C@@H]1C=C[C@@H](NC(=O)CC2(CC(=O)O)CCCC2)C1 | inconclusive: 63.1 µM [inhibitor, partial curve, poor fit]
2 | Cn1cc(CC(=O)N2CCCc3ncc(C(=O)NCCOc4ccccc4)cc32)c2ccccc21 | inconclusive: 56.2 µM [inhibitor, partial curve, poor fit]
3 | Cc1noc(C)c1CNC(=O)C1CCCNC1 (stereo not drawn) | inactive
4 | O=C(NC1CCN(c2cc(-c3ccc(Cl)cc3)[nH]n2)C1)c1ccccc1 (stereo not drawn) | inconclusive: 50.1 µM [inhibitor, partial curve, poor fit]
5 | CC(C)CN1CCN(C(=O)c2ccc3c(c2)N(S(C)(=O)=O)CC3)CC1 | inactive
6 | COCCCNC(=O)C1(C)CN(Cc2ccccc2)Cc2ccc(Nc3ccccc3)nc21 (stereo not drawn) | inconclusive: 50.1 µM [inhibitor, partial curve, poor fit]
7 | Cc1cccc(-c2ccc(C(=O)NCCCn3ccnc3C(C)C)cn2)c1C | inconclusive: 44.7 µM [inhibitor, partial curve]
8 | CN(Cc1ccccc1)C(=O)CC1CCN(C(=O)CC2CCCC2)C1 (stereo not drawn) | inconclusive: 70.8 µM [inhibitor, single point]
9 | CC(C)N1C[C@H](O)C[C@H]1c1nc(-c2ccc(C(F)(F)F)cc2)no1 | inconclusive: 100 µM [inhibitor, partial curve, poor fit]
10 | O=c1n(-c2ccc(F)cc2F)nc2n1CCN(Cc1ccc(F)cc1)C2 | inconclusive: 50.1 µM [inhibitor, partial curve, poor fit]
11 | COc1ccc(OC)c(NC(=O)c2ccc3c(c2)C(O)CCCCCN3C)c1 (stereo not drawn) | inconclusive: 56.2 µM [inhibitor, partial curve, poor fit]
12 | CCOc1ccccc1C(=O)N1CCC(n2cc(-c3nc(-c4ccccc4)no3)nn2)CC1 | inconclusive: 44.7 µM [inhibitor, partial curve, poor fit]
13 | O=C(c1[nH]nc2c1COc1ccccc1-2)N1CCC(Cc2nncn2CC2CC2)CC1 | active: 39.8 µM
14 | COc1ccc(CNC(=O)c2nnn3cc(C)[nH]c(=O)c23)cc1 | inactive
15 | COC(=O)[C@@H]1Cc2c([nH]c3ccccc23)[C@H]2C[C@@H](NCc3cccs3)C[C@@H](c3ccccc3F)N21 | inconclusive: 50.1 µM [inhibitor, partial curve, poor fit]
16 | COc1ccc(-c2cccc(C(=O)N(C)Cc3ccccc3)c2)nn1 | inconclusive: 50.1 µM [inhibitor, partial curve, poor fit]
17 | CC(C)(C)CC(=O)N1CCN2C(=O)c3cc(-c4cccc(C(F)(F)F)c4)ccc3NC(=O)[C@H]2C1 | inactive
18 | COc1cc(C(=O)NC2CCN(c3cc(-c4ccc(F)cc4)[nH]n3)CC2)cc(OC)c1OC | inactive
19 | O=C(Nc1ccccc1)c1nc2c(o1)CCN(Cc1cccs1)CC2 | inconclusive: 44.7 µM [inhibitor, partial curve, poor fit]
20 | COc1ccccc1-c1ccc(C(=O)N2CCC(C(=O)NCC(F)(F)F)CC2)cc1 | inconclusive: 44.7 µM [inhibitor, partial curve, poor fit]
21 | COCC(=O)N[C@H](C)c1c(-c2ccc(F)cc2)noc1C(=O)O | inactive

Row | Compound | Potency
22 | Cc1ccccc1OCc1nc(C2CN(C(=O)COc3ccc(F)cc3)C2)no1 | inconclusive: 50.1 µM [inhibitor, partial curve, poor fit]
23 | COc1ccc(-c2[nH]nc3ncc(C(=O)N4C[C@@H](C)O[C@@H](C)C4)nc23)c(C)c1 | inconclusive: 15.8 µM [inhibitor, full curve, poor fit]
24 | Cc1ccc(NC(=O)Nc2ccc(C)n(CC(=O)NCC(C)C)c2=O)cc1 | inconclusive: 70.8 µM [inhibitor, partial curve, poor fit]
25 | O=C(O)[C@H](Cn1ccc(=O)[nH]c1=O)NCc1ncc[nH]1 | inactive
26 | O=C(c1ccccc1F)N1CCCC(C(=O)N2CCCC(c3nc4ncccc4[nH]3)C2)C1 (stereo not drawn) | inactive
27 | CCN1CC(C(=O)NCc2ccc(-c3ccc(F)cc3)o2)CCC1=O (stereo not drawn) | inconclusive: 89.1 µM [inhibitor, single point]
28 | Cc1ccccc1N1Cc2c(NCc3cccc(Cl)c3)ncnc2N(C)CC1=O | inconclusive: 39.8 µM [inhibitor, partial curve]
29 | CNC(=O)c1cc(C2CC2)nc2onc(C3CCCN(C(=O)c4ccc(Cl)nc4)C3)c12 (stereo not drawn) | inconclusive: 50.1 µM [inhibitor, partial curve, poor fit]
30 | OC[C@@H]1O[C@H](CNC2CCOCC2)[C@H](N2CCN(c3ccc(F)cc3)CC2)[C@@H]1O | inactive
31 | Cc1cccc(CN2CCCCCCNC(=O)[C@@H]3CCC[C@@H]32)c1 | inconclusive: 70.8 µM [inhibitor, single point]
32 | Cc1ccc(-c2cc(C(=O)N3CCCC3c3nncn3C(C)C)[nH]n2)cc1C (stereo not drawn) | inactive
33 | COCCn1cc(CN2CCN(Cc3cccc(F)c3)CC2)ccc1=O | inconclusive: 79.4 µM [inhibitor, partial curve, poor fit]
34 | COc1cccc(NCc2nnc(C(=O)N3CCC[C@@H]3c3ccc(Br)cc3)n2Cc2ccccc2)c1 | inconclusive: 22.4 µM [inhibitor, full curve]
35 | c1ccc(-n2cncn2)c(Cn2ccnc2-c2cc3n(n2)CCCNC3)c1 | inactive
36 | Cc1ccc(CN2CCOc3ccc(CCC(=O)NCC4CC4)cc3C2)o1 | inconclusive: 28.2 µM [inhibitor, full curve]
37 | O=C1NCN(Cc2ccc(Cl)cc2)C12CCN(Cc1ccc(OC(F)(F)F)cc1)CC2 | inconclusive: 50.1 µM [inhibitor, partial curve, poor fit]
38 | O=C(CC(c1ccccc1)c1ccccc1Cl)N(Cc1cccnc1)C1CC1 (stereo not drawn) | inconclusive: 89.1 µM [inhibitor, partial curve, poor fit]
39 | CC1=C[C@@H](CNCc2ccncc2)[C@H](C(C)C)C[C@H]1Cc1nnc(-c2ccc(C)cc2)o1 | inconclusive: 56.2 µM [inhibitor, partial curve, poor fit]
40 | COCCOc1ccc2c(n1)CCN(C(=O)CC(C)C)C2 | inactive
41 | CC(C)N1CC(C(=O)NCc2ccccc2Cl)NC1=O (stereo not drawn) | inactive
42 | O=C(c1ccccc1F)N1CCC2(CC1)Cc1ccccc1NC2=O | inconclusive: 50.1 µM [inhibitor, partial curve, poor fit]

Row | Compound | Potency
43 | Cc1cnc(C(=O)N[C@@H]2CCC[C@@H]2C(=O)NCc2ccccc2F)cn1 | inactive
44 | COc1ccc(CNC[C@H]2O[C@H](Cc3cc(-c4ccccc4)on3)CC[C@@H]2O)cc1 | active: 39.8 µM
45 | C=CCN(C)C(=O)C[C@@H]1c2nc(NC(=O)CCCCC)sc2C[C@@H]2[C@](C)(CO)[C@H](O)CC[C@]21C | inactive
46 | N#Cc1cccc(CN2CCCCC23Cc2ccccc2CNC3=O)c1 (stereo not drawn) | inactive
47 | COCCn1c(=O)c(C(=O)NCCc2ccc(F)cc2)nc2cccnc21 | inactive
48 | O[C@@H]1CN(CC2CCNCC2)CC[C@H]1c1ccc2ccccc2c1 | inconclusive: 28.2 µM [inhibitor, full curve]
49 | Cc1ccc(NC(=O)c2cc3n(n2)CC(c2ccc4c(c2)OCO4)OC3)cc1 (stereo not drawn) | inconclusive: 50.1 µM [inhibitor, partial curve, poor fit]
50 | COc1ccc(CCNC(=O)CN2C(=O)NC(c3ccc(Cl)cc3)C3=C2COC3=O)cc1OC (stereo not drawn) | inconclusive: 44.7 µM [inhibitor, partial curve, poor fit]
51 | COc1ccc(N2CC3CCC(C2)N3Cc2ccc(Cl)cc2)cc1 | inactive
52 | COc1cccc(-c2cc(C(=O)NCc3cccs3)c3cnn(C)c3n2)c1 | inconclusive: 39.8 µM [inhibitor, partial curve, poor fit] and active: 25.1 µM
53 | O=C(NCc1ccccc1)c1ccccc1OC1CN(Cc2cccnc2Cl)C1 | inconclusive: 50.1 µM [inhibitor, partial curve, poor fit]
54 | COCCn1c(C)nnc1-c1cc(-c2ccc(OC)c(OC)c2)ccn1 | active: 89.1 µM
55 | COc1cccc(NC(=O)C2CN(C3CCCC3)C(=O)N2)c1 (stereo not drawn) | inactive
56 | CN1C(=O)CCc2cc(NC(=O)Cc3ccc(Cl)cc3)ccc21 | inconclusive: 44.7 µM [inhibitor, partial curve]
57 | Cc1noc(-c2cn(C3CCN(C(=O)c4ccc(C#N)cc4)CC3)nn2)n1 | inactive
58 | O=[S+]([O-])(N[C@@H]1[C@@H](c2ccccc2)[C@@H](CO)N2CCCC[C@H]12)c1ccc(Cl)cc1 | inconclusive: 39.8 µM [inhibitor, partial curve, poor fit]
59 | COc1ccc(CC2CCOC3(CCN(C(=O)c4cccc(C#N)c4)CC3)C2)cc1 (stereo not drawn) | inconclusive: 44.7 µM [inhibitor, partial curve, poor fit]
60 | Cc1ccc2c(n1)OC(COc1ccccc1)CN(Cc1ccccc1)C2=O (stereo not drawn) | inconclusive: 44.7 µM [inhibitor, partial curve, poor fit]
61 | CC(C)CCN1CCc2c(n(Cc3cccnc3)n(-c3ccccc3)c2=O)C1 | inconclusive: 17.8 µM [inhibitor, partial curve, poor fit]
62 | O=C(C1CCC1)N1CCC(n2cc(-c3nc(-c4ccccc4)no3)nn2)CC1 | inconclusive: 39.8 µM [inhibitor, partial curve, poor fit]
63 | O=C1NCCCCCCN(C(=O)c2cccs2)[C@H]2C[C@H](c3nc(Cc4ccccc4)no3)C[C@@H]12 | inconclusive: 39.8 µM [inhibitor, partial curve, poor fit]
